Certain results were filed several times, with different values. Only these are listed. The source may hold further records. Values given together are repeated measurements (runs, samples, wells, individuals or studies). Marks such as [2022-09] give the month of the run. Additions like (4×) count equal records among those shown.

Ten compounds from PubChem BioAssay AID1963863 (Molecular Pharmacology Branch, DTP, NCI, 2024) can be followed below.

In this assay the test system is 931267-113-T-J1-PDC KRAS spheroid with HUVEC/MSC, viability. The experiment in a line: Anticancer human tumor 931267-113-T-J1-PDC patient-derived colon adenocarcinoma cell line growth inhibition [KRAS2]. The settings on record: for IC50: compound alone; for viability, T/C: stronger effect = lower value. The text has this: Multicellular complex tumor spheroid response to RAS pathway inhibitors in combination with a targeted agents in patient-derived cell lines with oncogenic KRAS variants from multiple cancer types
A high-throughput screen of multi-cell type tumor spheroids was designed to identify active combinations of targeted small molecules and KRAS pathway inhibitors. Complex spheroids include a stromal component modeled by human endothelial cells (HUVEC) and fibroblasts modeled by human mesenchymal stem cells (MSCs). The concentration ranges selected for each drug and investigational agent were based upon clinically achievable concentrations if the clinical Cmax of the agent was known.
Compounds. The drugs and investigational agents: BI-3406 (NSC825286), BAY-293 (NSC824723), batoprotafib (TNO155; NSC825523), sotorasib (AMG 510; NSC818433), MRTX1257 (NSC819558), elimusertib (BAY 1895344; NSC800525), molibresib (GSK525762; NSC774829), temuterkib (LY3214996; NSC803410), venetoclax (NSC766270), alisertib (NSC759677), olaparib (NSC753686), talazoparib (NSC767125), erdafitinib (NSC781556), ipatasertib (NSC767898), cabozantinib (NSC761068), nintedanib (NSC756659), abemaciclib (NSC768073), docetaxel (NSC628503), trametinib (NSC758246), and sapanisertib (NSC764658) were obtained from the National Cancer Institute (NCI) Developmental Therapeutics Program Chemical Repository. The FDA-approved anticancer drug set is available from the Developmental Therapeutics Program. […] The stock solutions were prepared in dimethyl sulfoxide (DMSO, Sigma-Aldrich, St. Louis, MO, cat. D2650) at 800-fold the tested concentration and stored at -70 degrees C prior to their use. All drugs and investigational agents were tested over a range starting from a high concentration at or near the clinical Cmax and decreasing in half-log increments. If the clinical Cmax for an agent had not been determined, the highest concentration tested was 10 microM.
Cell Culture. All cells were maintained in an incubator at 37 degrees C and 5% CO2 with 95% humidity. The PDC lines were cultured according to standard operating procedures established by the NCI PDMR (https://pdmr.cancer.gov/sops/default.htm). Briefly, all PDCs were thawed and cultured in Matrigel-coated flasks prepared with a working solution of 1X Ham's F-12 nutrient mix, without supplementation (Invitrogen, Waltham, MA, cat. 11765054), 100 U/mL penicillin-streptomycin (Invitrogen, cat. 15140122), and 2.5% Matrigel (Corning Inc., Corning, NY, cat. 354248) for the first three passages. All PDCs were cultured in complete DMEM/F-12 media containing advanced DMEM/F-12 (Invitrogen, cat. 12634028), 4.9% defined fetal bovine serum, heat inactivated (HyClone Laboratories Inc., Logan, UT, cat. SH30070.03HI), 389 ng/mL hydrocortisone (Sigma-Aldrich, cat. H4001), 9.7 ng/mL human EGF recombinant protein (Invitrogen, cat. PHG0313), 23.4 microg/mL adenine (Sigma-Aldrich, cat. A2786), 97.3 U/mL penicillin-streptomycin (Invitrogen, cat. 15140122), 1.9 mM L-glutamine (Invitrogen, cat. 25030081), and 9.7 microM Y-27632 dihydrochloride (Tocris Bioscience, Bristol, United Kingdom, cat. 1254). The PDCs were cultured in complete DMEM/F12 media without 9.7 microM Y-27632 dihydrochloride for at least two passages prior to the screen. The established cell line HOP-62 was cultured in RPMI 1640 medium, HEPES (Invitrogen, cat. 22400105) with 10% defined fetal bovine serum (HyClone Laboratories Inc., cat. SH30070.03) and 2 mM L-glutamine (Invitrogen, cat. 25030081). The pooled donor HUVEC were cultured in endothelial cell growth medium 2 (PromoCell, Heidelberg, Germany, cat. C-22011) and the hMSC were cultured in mesenchymal stem cell growth medium 2 (PromoCell, cat. C-28009). For all experiments, HUVEC and hMSC were used at passages </=5, while the malignant cell lines were used at passages </=15. […]
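Also: compound exposure lasted 7 days before the readout.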
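For viability, T/C in this document: 100% = DMSO vehicle control viability.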

For the compound `CC(C)NCC(C(=O)N1CCN(c2ncnc3c2C(C)CC3O)CC1)c1ccc(Cl)cc1` (configuration not stated), the IC50 is > 10 µM, 6.95 µM, 6.41 µM, 7.3 µM, 5.9 µM. Further, the viability, T/C (compound alone 0.1 µM) is given as 73.3, 86.1, 99.1, 90.5, 91.5%.

As for `O=C(c1cc(Cc2n[nH]c(=O)c3ccccc23)ccc1F)N1CCN(C(=O)C2CC2)CC1`, the viability, T/C (compound alone 1 µM) was 61.1, 96.4, 91.9, 97.1, 88.1%.

Consider `CCNC(=O)CC1N=C(c2ccc(Cl)cc2)c2cc(OC)ccc2-n2c(C)nnc21` (configuration not stated), for which the IC50 is listed as 2.68 µM, 1.97 µM, > 10 µM, 1.79 µM, 2.53 µM.

As for `COc1cc2nccc(Oc3ccc(NC(=O)C4(C(=O)Nc5ccc(F)cc5)CC4)cc3)c2cc1OC`, the viability, T/C is 99.5, 109, 79.1, 106, 102% (compound alone 0.0316 µM); 86.8, 105, 103, 126, 109% (compound alone 0.1 µM); 68.6, 68.3, 56.9, 42.7, 59.9% (compound alone 10 µM).

Take `CC1COCCN1c1cc(-c2ccnn2C)c2ccnc(-c3ccn[nH]3)c2n1` (configuration not stated): the viability, T/C (compound alone 0.01 µM) is recorded as 78.7, 70.9, 120, 101, 90.5% and the viability, T/C (compound alone 0.0316 µM) is 77.4, 63.6, 92.2, 63.7, 69.3%.

In the case of `CC(=O)OC12COC1CC(O)C1(C)C(=O)C(O)C3=C(C)C(OC(=O)C(O)C(NC(=O)OC(C)(C)C)c4ccccc4)CC(O)(C(OC(=O)c4ccccc4)C21)C3(C)C` (configuration not stated), the viability, T/C is, setting by setting: (compound alone 0.01 µM) 72.6, 80.6, 98.8, 86.6, 106%; (compound alone 1 µM) 87.5, 74.5, 93.8, 101, 84.2%; (compound alone 3.16 µM) 94.3, 93.5, 85.6, 69.2, 81%.

Consider `COc1cc(OC)cc(N(CCNC(C)C)c2ccc3ncc(-c4cnn(C)c4)nc3c2)c1`, for which the viability, T/C reads like this: (compound alone 0.0316 µM) 120, 102, 98.1, 101, 91.3%; (compound alone 3.16 µM) 60.8, 68.7, 92.4, 60.9, 75.3%.

With `CC1OCC2(CCN(c3cnc(Sc4ccnc(N)c4Cl)c(N)n3)CC2)C1N` (configuration not stated), the viability, T/C runs as follows: (compound alone 0.1 µM) 96.3, 92.2 (2×), 82.8, 82, 73.1, 74, 93.6, 79.3, 83, 101% [2021-08] and 78.6, 100, 94.8, 80.1, 74.9, 92.7, 91.7, 81.8% [2021-09]; (compound alone 0.316 µM) 78.2, 70.9, 71.4, 66.7, 73, 60, 82.4 (2×), 78.9, 79.8, 83% [2021-08] and 74.8, 75.2, 73.2, 92.5, 66.4, 73.8, 94.7, 56.4% [2021-09]; (compound alone 1 µM) 101, 80.8, 85.5, 69.6, 66.7 (2×), 64.2, 83.7, 77.3, 80, 70.1% [2021-08] and 95, 71.8, 72.5, 84.4, 75.2, 80.8, 68.7, 74.7% [2021-09]; (compound alone 3.16 µM) 51.3 (2×), 50.3, 58.5, 54.5, 56, 82, 78.2, 79.3, 67.9, 90.1% [2021-08] and 69.6, 72.1, 78.3, 56.2, 59.8, 92.7, 77.1, 62.6, 71.2% [2021-09]; (compound alone 10 µM) 67.6, 67.7, 64.7, 62.2, 75.2, 52.3, 76.2, 75.5, 94.7, 74.8, 81.8% [2021-08] and 73.8, 76.8, 89.6, 63.8, 65.2, 68.3, 75.5, 81.3, 64.2% [2021-09].

Regarding `Cn1nccc1Nc1nccc(-c2cc3c(s2)C(C)(C)N(CCN2CCOCC2)C3=O)n1`, the viability, T/C (compound alone 0.1 µM) is 105, 99.5, 74.3, 90.5, 97.8%.

For the compound `CC(C)n1nc(-c2ccc3oc(N)nc3c2)c2c(N)ncnc21`, the half-inhibitory concentration (IC50) is given as 7.13, 4.39, 5.51, 14.3, 6.66 nM. The viability, T/C (compound alone 0.01 µM) is 43.1, 36.4, 39, 62.3, 42.1%.
